Experimental findings from paper PMC7904744, “Poly(ADP-ribosyl)ation enhances HuR oligomerization and contributes to pro-inflammatory gene mRNA stabilization” (Cellular and Molecular Life Sciences: CMLS, 2020) are described below.

The data set deals with the molecule itself. As to the kind of experiment: native gel or EMSA; RNA-EMSA: purified and eluted GST proteins (PARylated or not) with 5 nM 5' biotin-labelled ARE repeat or Cxcl2-ARE RNA oligo, 40 min, room temperature, 3 mM MgCl2, 40 mM KCl, 5% glycerol, 2 mM DTT, tRNA; 6% native gel; multiple shifted bands read as oligomeric HuR on the RNA. In general terms: Mobility shift assays separate free from complexed probe on a gel.

B1: GST-HuR D226A (natural protein)
chain: not shown
notes: HuR (ELAVL1), human, with D226A made in the background of GST-HuR; The samples with and without PARP1 incubation are kept as one molecule; also called D226A mutant of GST-HuR; D226 mutant; source: E. coli BL21, purified (glutathione Sepharose 4B); used with or without incubation with recombinant PARP1 enzyme
For the protein B1, the binding result is listed as “binds”.
